This is an account of results in the supplement of paper PMC11417369.

± gives the standard deviation of the averaged measurements. The list shows a part of the results.

For this assay, the system named is PfAP2-LT AP2 domain (GST-tagged). The assay is described as follows: gcPBM binding intensity (ln(normalized median fluorescence intensity)); higher = stronger DNA binding. The procedure, abridged:
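Each value is the highest Masliner-normalised natural-log median intensity across replicate spots of either orientation of a probe. The probes were primer-extended double-stranded 36-bp intergenic genomic sequences on an Agilent 4 × 180k array, alongside negative controls, exposed for 1 h to GST-tagged P. falciparum DNA-binding domains expressed in E. coli. Bound protein was picked up with Alexa488 anti-GST antibody and scanned at 488 nm.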
Take “AACACATACAAACACACACACAAAAAAAAAAAAAAA [CACACA_site393]”: the “gcPBM binding intensity (ln)” value was 9.65 ± 0.49.

Take “ATTCAATATAAATACACACACACTTTTAATAATTAA [CACACA_site5963]”: the “gcPBM binding intensity (ln)” value is 9.44 ± 0.3.

On to “ATTCACTGGTATGCATGAAAAAAAATATTATTATAA [CACACA_negctrl_site702]”, for which the “gcPBM binding intensity (ln)” value came to 8.45 ± 0.44.

With “TATATATATTTATACACACACATATATTTATATATT [CACACA_site484]”, the “gcPBM binding intensity (ln)” value came out at 9.22 ± 0.38.

For the sequence “TTATGTGTATACTAAGAACACACAAGTTACTTGGTG [CACACA_site8467]”, the “gcPBM binding intensity (ln)” value stood at 9.77 ± 0.41.

In the case of “ATTTTGATAACCGTACGTACATATATATATATATAT [XGTACX_site6605]”, the “gcPBM binding intensity (ln)” value amounted to 9.79 ± 0.028.

In the case of “TGAATACTTATGTTCGCACACATGCAAATTAAAAAA [CACACA_site4048]”, the “gcPBM binding intensity (ln)” value is 8.96 ± 0.43.

Turning to “ACATTCAATAAACGTCGTACACTTTCCTTTTTATGA [XGTACX_site3274]”, the “gcPBM binding intensity (ln)” value turned out to be 8.86 ± 0.52.

“AAAAAAACGATCGATCGTACTTATATTTACACATTC [XGTACX_site2883]”: the “gcPBM binding intensity (ln)” value stood at 8.9 ± 0.37.

“TTGTTTGGTTATAATTGTACGCATGTAATTACATAT [XGTACX_site4972]”: the “gcPBM binding intensity (ln)” value came out at 9.05 ± 0.42.

“TTATTTTTCTAAAAAGCATGCAAATAAAGATATGAA [TGCATGCA_site1032]”: the “gcPBM binding intensity (ln)” value stood at 8.51 ± 0.4.

With “ACATGGTGATAATACTGTACAAAAATAAATAAATAC [XGTACX_site897]”, the “gcPBM binding intensity (ln)” value stood at 9.1 ± 0.5.

Regarding “ATATATATTTTATTATGTACTTACTTCTTTTCTTAA [XGTACX_site6163]”, the “gcPBM binding intensity (ln)” value was determined as 8.89 ± 0.49.

Take “TTTTATAGTCTTATGGGTACAAAATATTAACCCACG [XGTACX_site1131]”: the “gcPBM binding intensity (ln)” value amounted to 8.37 ± 0.51.

As for “TTAATATTTACAAAATGTACAGATTATTTATTGTTG [XGTACX_site1270]”, the “gcPBM binding intensity (ln)” value worked out at 8.66 ± 0.45.

As to “AAATATGTCAAATATACACACATAATAACTAGAATA [CACACA_site7151]”, the “gcPBM binding intensity (ln)” value is 9.14 ± 0.39.

Regarding “TTTTTTAATATTTATACATGCATGCCGATTACTATA [TGCATGCA_site26]”, the “gcPBM binding intensity (ln)” value was found to be 9.03 ± 0.5.

Regarding “AATAATTATAATAAGGGTACGTATCTCACAGGAAAA [XGTACX_site4187]”, the “gcPBM binding intensity (ln)” value turned out to be 8.96 ± 0.45.

“TTAATTTGTAAATAATGTACATATAAATGGAAAGTA [XGTACX_site2743]”: the “gcPBM binding intensity (ln)” value is 8.67 ± 0.4.

For the sequence “TATTTATTAAAACACACACACACACCGACAAAATAA [CACACA_site4293]”, the “gcPBM binding intensity (ln)” value turned out to be 9.97 ± 0.25.

Consider “TAATAAAACATATATACACACATTATGTATACATAT [CACACA_site1703]”, for which the “gcPBM binding intensity (ln)” value came out at 9.1 ± 0.37.

Take “ACAATACAAATATATACACACATACATACATACATA [CACACA_site5699]”: the “gcPBM binding intensity (ln)” value is 9.33 ± 0.35.

Take “TAAAATATTATCTACGCACACATTAAAATAAAAAAA [CACACA_site3709]”: the “gcPBM binding intensity (ln)” value came to 8.86 ± 0.43.

On to “AAAACATTATTCCATACACACCATACTTTTTAATAA [CACACA_site7326]”, for which the “gcPBM binding intensity (ln)” value was determined as 8.89 ± 0.34.

As for “CATTTGCACACGCACACACACATAAAAAGAAAAATA [CACACA_site6297]”, the “gcPBM binding intensity (ln)” value is 10 ± 0.35.

With “ATAAAGAAAAGGAACACACAAATATGTAAATATGTA [CACACA_site6356]”, the “gcPBM binding intensity (ln)” value was determined as 9.19 ± 0.45.

On to “TTACACATAAATACCATATAAATATAATGCATATCT [CACACA_negctrl_site1731]”, for which the “gcPBM binding intensity (ln)” value came out at 8.84 ± 0.38.

On to “CCCTGAGCACTTTCGTGTACTAATAGTAACAATAAT [XGTACX_site1418]”, for which the “gcPBM binding intensity (ln)” value worked out at 8.94 ± 0.46.

Regarding “AATAATAAACACAATCAAATAAAATATGAAATATAA [GTGCAC_negctrl_site307]”, the “gcPBM binding intensity (ln)” value amounted to 8.84 ± 0.49.

Consider “AAATGTTGAAATGATACACACATATAAATATAAATA [CACACA_site7229]”, for which the “gcPBM binding intensity (ln)” value is 9.03 ± 0.46.

As to “AAACAAATGTATATGTGTACTTATTTTTTTGTATGT [XGTACX_site7134]”, the “gcPBM binding intensity (ln)” value is 8.8 ± 0.38.

Consider “TATGTAGATAAATAAGCACACACCAAACATATAAAA [CACACA_site1182]”, for which the “gcPBM binding intensity (ln)” value was 9.53 ± 0.42.

“ATCAGTCGAGATGACAGTACACAGTAGCCAGGAAAT [XGTACX_site4932]”: the “gcPBM binding intensity (ln)” value was 9.12 ± 0.47.

Turning to “TATATATATTTAAAAAGTACAAAAAAAAAAAATGAA [XGTACX_site374]”, the “gcPBM binding intensity (ln)” value stood at 8.56 ± 0.49.

For the sequence “AAAAAATAGACATATACACACATATGTATTTATAAT [CACACA_site5225]”, the “gcPBM binding intensity (ln)” value is 9.24 ± 0.47.

Turning to “CGTATGCAAGGAACCACACACACACCCATAAATGTA [CACACA_site749]”, the “gcPBM binding intensity (ln)” value stood at 9.65 ± 0.35.

For the sequence “AATATAATAATAAAAACACACACGTTGATTGTATTA [CACACA_site2381]”, the “gcPBM binding intensity (ln)” value was found to be 9.05 ± 0.38.

On to “TAAAAATTCAATTGCACACGCACATATTTTAATAAG [CACACA_site2014]”, for which the “gcPBM binding intensity (ln)” value was found to be 8.78 ± 0.38.

Turning to “ATGTCATTATATACATGTACGCATATCTGTTTATCC [XGTACX_site3947]”, the “gcPBM binding intensity (ln)” value was found to be 9.18 ± 0.51.

Turning to “CCTATAATAAATAATACACACATATTGTAAATATAT [CACACA_site7496]”, the “gcPBM binding intensity (ln)” value amounted to 9.01 ± 0.41.

Take ATTTCATATAGTGTAGTGCAATTTTAAGCATCAAGG: the “gcPBM binding intensity (ln)” value worked out at 8.72 ± 0.37.

In the case of “TTAAAAATAAAAAATACACACTCTAGTCCATGTAAC [CACACA_site3640]”, the “gcPBM binding intensity (ln)” value was 8.84 ± 0.37.

As for “TTTTTTTTTATAAGGTGTACGTAAAATGTGTAGGTC [XGTACX_site3585]”, the “gcPBM binding intensity (ln)” value came to 8.6 ± 0.38.

“TCATGTTTTACAAAAACACACAAATGAATATAAACC [CACACA_site1161]”: the “gcPBM binding intensity (ln)” value worked out at 8.93 ± 0.35.

As to “TCACATATTATCTTTACACACTATATATAAGTTTTA [CACACA_site2790]”, the “gcPBM binding intensity (ln)” value turned out to be 8.78 ± 0.44.

As to “TTAAGATAGCAAATATGTACACATTTGTAAAATAAA [XGTACX_site4837]”, the “gcPBM binding intensity (ln)” value worked out at 8.95 ± 0.49.

As for “AGTACAGACATAGACACACACACACCCATAAAAAAA [CACACA_site1515]”, the “gcPBM binding intensity (ln)” value was determined as 9.99 ± 0.45.

For the sequence “TGTACATAAATCTAATTATTATATGTGTATATATAT [CACACA_negctrl_site1582]”, the “gcPBM binding intensity (ln)” value was found to be 8.63 ± 0.38.

Take “ATACGTATTTATTTCACACACGTTAAAAAAATAAAA [CACACA_site6027]”: the “gcPBM binding intensity (ln)” value came out at 8.85 ± 0.47.

For “AGAATGAAATAATATACACACAAAGGAAAAATGTAA [CACACA_site3911]”, the “gcPBM binding intensity (ln)” value is 9.19 ± 0.47.

Regarding “AAGGAGCCTATGAACACACACATGTACCTATATTAA [CACACA_site7838]”, the “gcPBM binding intensity (ln)” value is 9.24 ± 0.45.

In the case of “ACTACATAATATTTACGTACCTAAAAAATTCTTATA [XGTACX_site509]”, the “gcPBM binding intensity (ln)” value came out at 8.55 ± 0.37.

Take “TCTTGACTAAATATATGTACATATATTTTAATAATA [XGTACX_site701]”: the “gcPBM binding intensity (ln)” value is 8.61 ± 0.32.

As for “TAAGTGCTTTTCAACTGTACCTTCCATTTATTTATT [XGTACX_site8589]”, the “gcPBM binding intensity (ln)” value came out at 8.81 ± 0.52.

For “GTATTCAAAAGTGAAACATGCAATAATATATATATA [TGCATGCA_site617]”, the “gcPBM binding intensity (ln)” value is 8.91 ± 0.3.

As for “TTCTTATTTTATATTTCACACATTTTTACTATACTT [CACACA_site5817]”, the “gcPBM binding intensity (ln)” value worked out at 9.03 ± 0.47.

Turning to “AAAAAAAAAAAAAATACACACGTGAATGTATTGTTT [CACACA_site4856]”, the “gcPBM binding intensity (ln)” value is 8.97 ± 0.41.
